About 1,700 (3.3%) of roughly 52,000 compounds were called active. Rule as the data show it: active = survival mostly below about 52% (no sharp cut-off); inactive = mostly above about 56%. The list shows a part of the results.
system: Wild type; assay: S. aureus survival, RN4220 and DeltatarO strains – OD600, teichoic acid synthesis inhibitors, primary screen (AID 463173); settings: S. aureus RN4220 wild type/DeltatarO growth, OD600, 18 h, stronger effect = lower value, screened at 18.75 µg/mL (by protocol)

Compound	survival
O=C(CC1S/C(=N\N=C2CCCCC2)NC1=O)Nc1ccc(F)cc1 (configuration not stated)	inactive: 113%
O=C(Nc1ccccc1C(F)(F)F)C1CCN(S(=O)(=O)Cc2ccccc2)CC1	inactive: 85%
CN(C)CCNCc1cc2c(-c3cccc(F)c3)nn(-c3ccccc3)c2[nH]c1=O	inactive: 128%
Cc1cc2nsnc2c(S(=O)(=O)NCC(=O)O)c1C	inactive: 99%
Cc1oc2cc3oc(=O)c(CC(=O)NCc4ccccc4)c(C)c3cc2c1C	inactive: 84%
Cc1ccc(C)c(NC(=O)c2ccc3c(c2)CCCN3S(C)(=O)=O)c1	inactive: 102%
COc1cccc(NC(=O)c2oc3ccccc3c2NC(=O)c2ccc(F)c(F)c2)c1	inactive: 86%
Cc1ccc(-n2c(=O)c3sc4ccccc4c3n(C)c2=O)cc1F	inactive: 83%
CCOc1ccc(NC(=O)CSc2ncc3c(n2)-c2ccccc2N(C)S3(=O)=O)cc1	inactive: 78%
Clc1ccccc1-c1nc(Nc2ccccc2)nc2ccc(Br)cc12	inactive: 31%
Cc1ccc(NC(=O)N2CCC(n3c(C)nc4cccnc43)CC2)c(Cl)c1	inactive: 71%
COCCNC(=O)CCC(=O)NNc1nc2ccccc2c2nc(-c3ccccc3)nn12	inactive: 76%
Cc1ccc(NC(=O)c2cc(S(=O)(=O)N3CCOCC3)c(Cl)cc2Cl)cc1	inactive: 69%
Cc1cc(C)cc(NC(=O)C2CCN(S(=O)(=O)c3cccc4nonc34)CC2)c1	inactive: 59%
Cc1nc2sccn2c1-c1csc(Nc2cccc(Cl)c2C)n1	inactive: 122%
COc1ccc(CNC(=O)Nc2cn(CC(C)C)c(=O)c3ccccc23)c(OC)c1	inactive: 89%
CCc1ccc(CNC(=O)c2ccc(CSc3nc4ccncc4n3Cc3ccccc3)cc2)cc1	inactive: 90%
CCC(Oc1ccccc1)C(=O)Nc1nnc(S(=O)(=O)Nc2ccccc2)s1 (configuration not stated)	inactive: 40%
CCn1c2ccccc2c2cc(NC(=O)COC)ccc21	inactive: 108%

Compound	survival
Cc1noc(-c2ccccc2OCC(=O)Nc2cccc([N+](=O)[O-])c2)n1	inactive: 100%
COC(=O)CCc1sc(Nc2ccc(OC)cc2)nc1-c1ccc(OC)cc1	inactive: 77%
Cc1ccccc1NC(=O)CC1C(=O)NCCN1C(=O)c1cccc(Cl)c1 (configuration not stated)	inactive: 79%
CC(=O)c1ccc(N2CCN(C(=O)NCc3noc4ccc(C)cc34)CC2)cc1	inactive: 74%
CCNC(=O)CCSc1nnc(-c2ccccc2C)o1	inactive: 99%
Cc1ccc(N(C(=O)Cn2nnc3ccccc32)C(C(=O)NCc2ccco2)c2cccnc2)cc1C (configuration not stated)	inactive: 103%
Cc1ccc(S(=O)(=O)NCc2nc3nc(C)cc(C)n3n2)c(C)c1	inactive: 126%
CCOC(=O)C1CCCN(S(=O)(=O)c2ccc3[nH]c(=O)ccc3c2)C1 (configuration not stated)	inactive: 63%
COc1ccc(N2CCN(C(=O)CCS(=O)(=O)c3cc4c(cc3Cl)NC(=O)CO4)CC2)cc1	inactive: 85%
COc1ccc(-c2nnn3c2nc(N2CCCC(C)C2)c2ccccc23)cc1 (configuration not stated)	active: 0%
Cc1ccc(C)c(N(C)C(=O)C2CCN(S(=O)(=O)c3cccc4nsnc34)CC2)c1	inactive: 117%
CC(=O)c1cc(C(=O)Nc2cccc(C)c2)c2ccccn12	inactive: 63%
CCN1c2ccccc2-c2nc(SCC(=O)Nc3ccc(C)c(Cl)c3)ncc2S1(=O)=O	inactive: 19%
CCOC(=O)c1ccccc1NC(=O)CSc1nc2ncccc2[nH]1	inactive: 70%
Cc1ccc(S(=O)(=O)c2[nH]c(-c3ccccc3)nc2SCC(=O)O)cc1	inactive: 93%
COc1ccc(N2CCN(CC(O)COc3ccc(C(C)(C)C)cc3)CC2)cc1 (configuration not stated)	inactive: 87%
CCOC(=O)c1ccc(NC(=O)CC2C(=O)N(c3ccccc3)C(=O)N2Cc2cccs2)cc1 (configuration not stated)	inactive: 76%
Cc1ccc2c(CNCCc3ccc(Cl)cc3)c(C(=O)O)n(Cc3ccc(F)cc3)c2c1	active: 4%
CCOc1ccc(CNC(=O)c2ccc3nc(Cc4ccc(OC)cc4)oc3c2)cc1OC	inactive: 66%

Compound	survival
O=c1c2sc3ccccc3c2n(Cc2ccccc2)c(=O)n1Cc1ccccc1	inactive: 129%
Cc1ccc(Cl)cc1NC(=O)c1ccc(-c2nc(CSc3ccccc3)c(C)o2)cc1	inactive: 55%
CCc1ccc(CN(C(=O)c2nc(SC)ncc2Cl)C2CCS(=O)(=O)C2)cc1 (configuration not stated)	inactive: 88%
CCC(=O)N1c2ccccc2CC1C(=O)N1CCN(c2ccccc2)CC1 (configuration not stated)	inactive: 71%
CCN(C(=O)Cc1c(C(=O)O)[nH]c2ccccc12)c1ccc(OC)cc1	inactive: 58%
CCCC(=O)NCCc1ccc(F)cc1	inactive: 116%
CC(C)Cc1nn2c(=O)cc(COC(=O)c3ccc(NC(=O)c4cccs4)cc3)nc2s1	inactive: 127%
CC(=O)c1ccc(N2CCN(C(=O)C3CCN(S(=O)(=O)c4cccc5nonc45)CC3)CC2)cc1	inactive: 55%
CCOc1ccccc1NC(=O)Cn1c(=O)ccc2cc(S(=O)(=O)N3CCC(C)CC3)ccc21	inactive: 65%
CCOC(=O)c1ccc(NC(=O)CCc2c(C)nc3c(c(C)nn3C)c2C)cc1	inactive: 94%
COc1cc(C(Nc2ccc(S(=O)(=O)NCC3CCCO3)cc2)C(=O)NC(C)(C)C)cc(OC)c1OC (configuration not stated)	inactive: 105%
O=c1c2c3c(sc2nnn1Cc1ccc(Br)cc1)CCCC3	inactive: 28%
O=S(=O)(NCCc1csc(-c2ccc(F)cc2)n1)c1ccc(Cl)cc1	inactive: 85%
Cc1ccc(OCCCn2c(C3CC(=O)N(c4cccc(Cl)c4)C3)nc3ccccc32)c(C)c1 (configuration not stated)	inactive: 90%
CCOC(=O)C1CCN(C(=O)C2COc3ccccc3C2)CC1 (configuration not stated)	inactive: 68%
Cc1ccc(CN2CCSc3ccc(C(=O)N4CCN(c5cccc(C)c5C)CC4)cc32)cc1	inactive: 17%
O=C(CSc1nccn1Cc1ccc(Cl)cc1)NC1CCCC1	inactive: 73%
COc1ccc(-c2cnc(C)o2)cc1S(=O)(=O)Nc1ccc(C)c(F)c1	inactive: 60%
O=C(c1cc2ccccc2oc1=O)N(Cc1cccc(Cl)c1)C1CCS(=O)(=O)C1 (configuration not stated)	inactive: 126%

Source: PubChem BioAssay AID463173 (ICCB-Longwood Screening Facility, Harvard Medical School, 2010)
